# Laboratory results as given in article PMC4336329 (PLoS ONE, 2015).
# The whole screen tested about 310,000 compounds, of which about 14,000 (4.5%) showed an effect of 50% or more. The effect is printed as a negative number. Some of the results follow.
# Biological target: human ether-à-go-go-related gene (hERG) potassium channel (human, UniProt Q12809)
# Assay: primary screen, population patch clamp on CHO cells stably expressing hERG
# 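Also: peak tail current of the secondary pulse compared with the same well before compound.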
# Sequence of human ether-à-go-go-related gene (hERG) potassium channel (Q12809 whole entry, looked up): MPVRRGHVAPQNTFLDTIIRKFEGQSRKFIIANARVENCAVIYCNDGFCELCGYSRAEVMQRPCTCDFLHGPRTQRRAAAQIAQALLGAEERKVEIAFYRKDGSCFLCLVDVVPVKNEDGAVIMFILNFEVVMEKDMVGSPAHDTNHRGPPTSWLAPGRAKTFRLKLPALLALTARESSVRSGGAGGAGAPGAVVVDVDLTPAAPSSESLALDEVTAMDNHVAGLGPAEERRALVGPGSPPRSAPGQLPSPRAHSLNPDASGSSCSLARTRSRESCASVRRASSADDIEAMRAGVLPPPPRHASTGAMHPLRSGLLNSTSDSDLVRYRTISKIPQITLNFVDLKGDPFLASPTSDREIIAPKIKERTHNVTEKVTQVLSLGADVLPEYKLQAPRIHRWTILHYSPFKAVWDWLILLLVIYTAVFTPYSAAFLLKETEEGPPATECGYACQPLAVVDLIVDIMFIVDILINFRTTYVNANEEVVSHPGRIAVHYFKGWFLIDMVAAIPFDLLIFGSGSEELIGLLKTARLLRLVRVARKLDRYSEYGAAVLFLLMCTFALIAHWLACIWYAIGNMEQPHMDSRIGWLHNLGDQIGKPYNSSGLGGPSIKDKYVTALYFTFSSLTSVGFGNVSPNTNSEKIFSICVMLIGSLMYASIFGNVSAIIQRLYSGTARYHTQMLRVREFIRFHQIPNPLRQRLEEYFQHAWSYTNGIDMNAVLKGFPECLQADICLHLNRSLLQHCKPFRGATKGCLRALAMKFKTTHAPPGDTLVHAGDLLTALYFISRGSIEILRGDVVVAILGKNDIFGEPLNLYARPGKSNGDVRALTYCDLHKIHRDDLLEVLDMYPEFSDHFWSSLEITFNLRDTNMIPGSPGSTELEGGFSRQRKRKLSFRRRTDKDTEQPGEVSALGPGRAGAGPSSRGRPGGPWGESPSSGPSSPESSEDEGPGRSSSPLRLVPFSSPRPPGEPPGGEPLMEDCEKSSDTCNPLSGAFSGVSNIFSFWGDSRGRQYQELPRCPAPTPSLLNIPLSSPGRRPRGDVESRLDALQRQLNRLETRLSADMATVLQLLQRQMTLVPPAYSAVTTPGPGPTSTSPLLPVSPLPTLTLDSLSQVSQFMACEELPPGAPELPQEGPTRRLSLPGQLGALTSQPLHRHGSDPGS
row,SMILES,"hERG current change (%, negative = inhibition) at 10uM [%]"
1,CCc1nnc(NC(=O)C2CC(=O)N(c3ccc4c(c3)OCCO4)C2)s1 (stereo not shown),4.32
2,Cc1ccc(SCc2[nH]nc3c2C(c2cccnc2)C(C#N)=C(N)O3)cc1 (stereo not shown),-2.64
3,S=C(Nc1ccc(Cl)cc1)N(CCCN1CCOCC1)Cc1ccco1,-26
4,COc1ccc(NC(=O)CCC(=O)Nc2nnc(C3CCCCC3)s2)cc1,19.2
5,CN(Cc1ccc(F)cc1)C(=O)c1ccc(NC(=O)CC2SC(N3CCCC3)=NC2=O)cc1 (stereo not shown),4.32
6,CNS(=O)(=O)c1cn(CC(=O)NCc2ccccc2OC)cc1S(=O)(=O)NC,20.5
7,COCCCNC(=O)c1c[nH]c2ccc(S(=O)(=O)N3CCC(C)CC3)cc2c1=O,6.48
8,CCOc1ccccc1NC(=O)N1C2CCCC1CC(NC(=O)C1CC1)C2 (stereo not shown),13.6
9,O=C(Nc1cccc(-c2cc3ccccc3oc2=O)c1)c1ccc(Br)o1,-1.01
10,O=C(Nc1ccc(S(=O)(=O)N2CCCC2)cc1)c1ccc(CN2CCOCC2)cc1,-5.12
11,CCCCc1nc2sc3c(=O)[nH]cnc3c2c2c1CCCC2,2.65
12,O=C1CCCN1c1ccc(S(=O)(=O)N2CCN(c3ccccc3)CC2)cc1,16.3
13,CNc1ccc(/C=C(\CCC(=O)O)c2nc3ccccc3s2)cc1[N+](=O)[O-],0.0204
14,Cc1ccc2nc(NC(=O)Cn3nc(C)c([N+](=O)[O-])c3C)sc2c1,-23.5
15,O=C(Nc1nc(-c2cccnc2)cs1)c1ccccc1F,20.3
16,O=C(NCC1CCCO1)C1CC(=O)N(c2ccc(Cl)cc2)C1 (stereo not shown),-7.51
17,Cc1sc(NC(=O)/C=C/c2ccc3c(c2)OCO3)nc1-c1ccccc1,8.5
18,C/C(=N\NC(=O)c1ccc2c(c1)OCO2)c1ccc(NS(C)(=O)=O)cc1,-27.5
19,O=C(CCNC(=O)c1ccc([N+](=O)[O-])cc1)Nc1ccc(F)cc1F,-29.7
20,Cc1cc2ccccc2n1CCNC(=O)C(C)(C)C,11.7
21,Cc1cccc(N(CC(=O)O)CC(=O)O)c1,-3.01
22,Cc1ccc(NC(=O)CN(C)C(=O)c2cccc(S(=O)(=O)NCc3cccs3)c2)cc1,-18.5

row,SMILES,"hERG current change (%, negative = inhibition) at 10uM [%]"
1,CCOC1Cc2ccccc2N(C(N)=O)c2ccccc21 (stereo not shown),13.5
2,Cc1nnsc1C(=O)Nc1cc(Cl)ccc1Cl,9.8
3,CN1CCN(CC(O)COCc2ccc3c(c2)OCO3)CC1.Cl (stereo not shown),6.52
4,CC1CCN(C(=O)CN(c2ccc(Cl)c(C(F)(F)F)c2)S(C)(=O)=O)CC1,-5.67
5,COc1ccc(-c2nc3ccccc3n2Cc2ccc(C)cc2)cc1,-6.29
6,Cc1ccc2[nH]c3c(=O)n(Cc4ccccn4)cnc3c2c1,-1.6
7,CCN(CC)C(=S)SC1CCCCN(C(=O)c2ccccc2)C1=O (stereo not shown),-9.24
8,Cc1ccc2nc(C)c(C(=O)NN=C3CCN(C)CC3)n2c1,12.1
9,Cc1ccc(CCNC(=O)C2CCN(S(=O)(=O)c3c(C)nn(C)c3C)CC2)cc1,-3.06
10,CN(CC(=O)Nc1ccc(Cl)c(C(F)(F)F)c1)C(=O)C1CCC1,-14.8
11,CC(C)C(=O)NN1c2ccccc2CCc2ccccc21,-7.49
12,COc1cccc(/C=N/Nc2ncc(C)c(=O)[nH]2)c1OC,-3.72
13,Cc1cc(NC(=O)c2ccc(NC(=O)C3CC3)cc2)no1,20.8
14,CCCC[n+]1ccn(-c2nc3ccccc3nc2[N-]S(=O)(=O)c2cccs2)c1,-10.2
15,C=C(C)COc1ccc2c(C)c(CCC(=O)NC3CC3)c(=O)oc2c1,-2.92
16,CCOC(=O)c1sc(=S)n(CC)c1NC(=O)c1ccccc1C,12.5
17,CC1CN(C(=O)/C=C/c2ccc(SC(F)F)cc2)CC(C)O1 (stereo not shown),-59.6
18,NS(=O)(=O)c1ccc(O)c(NC(=O)c2ccc([N+](=O)[O-])cc2)c1,13.3
19,Cc1cc(-n2cc(Br)c(=O)[nH]c2=O)nc(-c2ccccc2)n1,-1.85
20,O=C(CSc1ncc(S(=O)(=O)c2ccccc2)c(=O)[nH]1)Nc1ccccc1Cl,4.77
21,COc1ccc(OC)c(S(=O)(=O)n2nnc3ccccc32)c1,-24.9
22,COc1ccc(-c2csc3ncnc(N4CCN(S(=O)(=O)c5cccc(Br)c5)CC4)c23)cc1,17

row,SMILES,"hERG current change (%, negative = inhibition) at 10uM [%]"
1,CCCC(=O)NCCCc1nc2ccccc2n1C,-1.95
2,COC(=O)N=Nc1c(O)[nH]c2ccc(Br)cc12,-5.68
3,COC(=O)c1cc2ccsc2n1Cc1nc(-c2ccc(Cl)cc2)oc1C,7.33
4,Cc1nc(Cl)c(Cl)n1CCOc1ccccc1,-6.44
5,CCOC(=O)CSc1nnc(CNC(=O)c2ccc(S(=O)(=O)N3CCCC3)cc2)n1C,18.5
6,CSc1ccc(CN(C)Cc2nc3cc(C(F)(F)F)ccc3c(=O)[nH]2)cc1,12.9
7,Cc1ccc(NC(=O)CN2C(=O)NC(C)(c3ccc(Cl)cc3)C2=O)c(Br)c1 (stereo not shown),-0.775
8,Cc1c(C)c2ccc(OCC(=O)c3ccccc3)cc2oc1=O,31.2
9,Clc1ccc(OCc2nn3c(C4CCCCC4)nnc3s2)cc1,-14.9
10,O=[N+]([O-])c1cccc(-c2csc(N/N=C/c3cccc(O)c3)n2)c1,6.76
11,O=C(NCCc1c[nH]c2ccccc12)c1cc2ccccc2oc1=O,-0.59
12,NC(=O)COC(=O)C1CSC2(c3ccc(F)cc3)CCC(=O)N12 (stereo not shown),9.89
13,COc1ccc(CN2CCNC(=O)C2CC(=O)NC2CCCCCC2)c(F)c1 (stereo not shown),-20.2
14,CC(=O)Nc1ccc(-c2ccc(NC(C)=O)c(O)c2)cc1O,12.7
15,O=C(COc1ccccc1)Nc1ccccc1C(=O)NCc1ccco1,-6.63
16,COC(=O)c1ccc(CSc2nc3ccccc3s2)o1,-9.12
17,CCS(=O)(=O)N1CCC(C(=O)OCC(=O)c2ccc(Br)cc2)CC1,3.45
18,CC(NC(=O)C1CCC1)c1ccc2c(c1)OCO2 (stereo not shown),-5.51
19,O=C(COC(=O)c1ccc(CNS(=O)(=O)c2ccc(F)c(Cl)c2)cc1)NC1CCCCCCC1,9.59
20,CC(=O)Nc1ccc(S(=O)(=O)N(C)CC(=O)OCC(=O)N2CC(C)OC(C)C2)cc1 (stereo not shown),3.96
21,CCOC(=O)C[N+](C)(C)CCOC1CC2CCC1(C)C2(C)C.[Cl-] (stereo not shown),10.3
22,Cc1ccc(NC(=O)CSc2nnc(CNC(=O)c3ccccc3F)o2)cc1,2.03

row,SMILES,"hERG current change (%, negative = inhibition) at 10uM [%]"
1,Cc1cc(C)nc(SCC(=O)Nc2ccc(N3CCOCC3)c(Cl)c2)n1,-20.2
2,COc1ccc(/C=C/C(=O)Nc2ccccc2C)cc1S(=O)(=O)N1CCOCC1,-45.3
3,CC(C)NC(=O)CCS(=O)(=O)c1cccc2nonc12,-2.08
4,CCOc1ccc(NS(=O)(=O)c2ccc3c(c2)N(C(C)=O)CCO3)cc1,4.72
5,O=C(CSc1cccc[n+]1[O-])c1cc(Cl)ccc1Cl,25.9
6,CCOc1ccc(NC(=O)C2CCN(C(=O)C3CC(=O)N(c4ccc(C)cc4)C3)CC2)cc1 (stereo not shown),-22.1
7,CCCc1cc(=O)oc2cc(C)cc(OCC(=O)Nc3ccc(S(N)(=O)=O)cc3)c12,22
8,O=C(NCc1ccc(C(F)(F)F)cc1)C1CC(c2ccccc2[N+](=O)[O-])=NO1 (stereo not shown),-46.1
9,FC(F)Oc1ccccc1NC(=S)Nc1cccc(Cl)c1Cl,-4.74
10,CCOc1ccc(-n2c(=O)cc(N3CCN(c4ccccc4)CC3)[nH]c2=O)cc1,3.96
11,O=C(Nc1nnc(-c2ccccc2)o1)c1cc(-c2cccs2)nc2ccccc12,2.29
12,Cc1ccc(Oc2coc3cc(OC(=O)c4cccs4)ccc3c2=O)cc1,-2.04
13,Cc1cccc(N(CC(=O)NC2CCCC2)C(=O)c2c(C)noc2C)c1,8.05
14,COC(=O)[C@H]1Cc2cnoc2C[C@]1(C)C(=O)O,5.43
15,CC(=O)Nc1ccccc1C(=O)N1CCN(c2cccc(C)c2C)CC1,12.8
16,CN(C)C(=S)c1ccc(N(C)C)cc1,14.8
17,FC(F)(F)c1ccc(NC(=S)NCc2ccccc2)cc1,3.15
18,COc1ccc(O)c(/C=N/NC(=O)c2ccc(OCc3cccc(Br)c3)cc2)c1,9.95
19,COc1ccc(C2Nc3ccccc3C(=O)N2Cc2ccco2)cc1COc1ccc(F)cc1 (stereo not shown),-1.98
20,O=C(Nc1cccc(-c2nn[nH]n2)c1)c1ccc(Cl)s1,12.8
21,CCOc1ccc(CCNC(=O)Cc2ccc(NC(=O)C3=C(C)OCCS3)cc2)cc1,20.9
22,CCOc1cc(/C=N/NC(=O)CSc2nncn2C)ccc1OCc1ccccc1,-16.5
